Test results as given in PubChem BioAssay AID1030 (National Center for Advancing Translational Sciences (NCATS), 2008).
“And” between values parts separate entries of the source, which are not always exact repeats. Identical values can stand only once. About 16,000 (7.3%) of roughly 220,000 compounds were called active. Inconclusive results, whose numbers are uncertain, are shown with a selection of clear calls. Calls come from the whole dose curve; as a rule, active = well fitted inhibition curve with a large enough effect (not every such curve was filed as active); inconclusive = small, poorly fitted or top-dose-only effect, or another doubt; inactive = no such curve, though single readings can be large or run the other way. Potencies beside an inconclusive call are fits to weak or partial responses and may not hold up.

Each molecule was assayed against Aldehyde dehydrogenase 1A1 (Homo sapiens) (UniProt P00352) (assay: qHTS Assay for Inhibitors of Aldehyde Dehydrogenase 1 (ALDH1A1)). Settings: Purified ALDH1A1, NADH fluorescence, propionaldehyde substrate; series mostly up to 75.3 µM; activity, negative = inhibition: at the top concentration.
UniProt P00352, sequence (P00352 whole entry, looked up): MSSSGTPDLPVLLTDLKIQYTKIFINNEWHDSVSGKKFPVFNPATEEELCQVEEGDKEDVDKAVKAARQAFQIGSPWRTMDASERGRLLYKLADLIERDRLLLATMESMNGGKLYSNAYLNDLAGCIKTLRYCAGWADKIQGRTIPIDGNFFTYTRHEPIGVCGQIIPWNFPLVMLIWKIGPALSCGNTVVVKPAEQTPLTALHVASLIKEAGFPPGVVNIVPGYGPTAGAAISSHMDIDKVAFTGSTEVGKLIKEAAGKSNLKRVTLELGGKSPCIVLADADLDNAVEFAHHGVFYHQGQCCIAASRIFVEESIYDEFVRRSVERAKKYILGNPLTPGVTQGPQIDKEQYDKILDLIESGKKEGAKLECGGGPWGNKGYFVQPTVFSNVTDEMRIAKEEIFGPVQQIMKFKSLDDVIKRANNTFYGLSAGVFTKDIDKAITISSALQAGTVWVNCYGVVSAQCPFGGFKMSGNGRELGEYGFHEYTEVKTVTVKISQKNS
Potency is the fitted concentration of half-maximal effect; tags give direction and shape of the fitted curve.
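Throughout, for activity, negative = inhibition: plate controls were no enzyme wells and a reference inhibitor.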

Potency, active:
O=C1CC(N2CCCN(C3CC(=O)N(c4ccc(F)cc4)C3=O)CC2)C(=O)N1c1ccc(F)cc1 (stereo not drawn) 12.6 µM
O=C(C1=C[C@@H](C2CC2)C[C@@H](OCCCCO)O1)N1CCOCC1 31.6 µM
O=C(OCn1ncc(Cl)c(Cl)c1=O)c1cccc(C(F)(F)F)c1 0.631 µM
O=C(CCS(=O)(=O)c1cc(Br)cc2c1N(C(=O)C1CC1)CC2)NCc1ccco1 11.2 µM
Cn1c2c(c(=O)n(C)c1=O)C1c3ccccc3OCC1C(C)(C)O2 (stereo not drawn) 28.2 µM
COC(=O)c1ccc(C2NC(=O)c3c(sc(C)c3C)N2)cc1 (stereo not drawn) 23.8 µM
Cc1cccc(-n2nnnc2SC(C)C(=O)NCCC2=CCCCC2)c1 (stereo not drawn) 5.01 µM
Cc1ccc(/C([O-])=C(/C(=S)NCc2ccccc2)[n+]2cccc(CO)c2)cc1[N+](=O)[O-] 8.91 µM
Cc1ccc(C(=O)NC(=S)Nc2ccc(Oc3ccc(Cl)cc3)cc2)cc1 17.8 µM
On1onc2c3cc(-c4ccccc4)nc3ccc21 17.8 µM
CCCN1C(=O)/C(=C\c2nc3ccccc3c(=O)[nH]2)c2ccccc21 4.47 µM
O=C(CCN1CCC(c2ccccc2)C1)c1ccccc1 (stereo not drawn) 1.41 µM
Cc1ccc2cc(CN(C(=O)c3ccco3)c3ccccc3C)c(=O)[nH]c2c1 4.47 µM
O=C(Nc1nccs1)C1CCCN1S(=O)(=O)c1ccc(Cl)cc1 (stereo not drawn) 17.8 µM
CCSc1nc(N2CCOCC2)c2c(c1C#N)CCCC2 22.4 µM
COc1ccccc1C(=O)NC(=S)Nc1ccc(NC(=O)c2ccco2)cc1 12.6 µM

Potency, inconclusive:
Cc1ccc2cc(CN(CCCN(C)C)C(=O)NCc3ccccc3)c(=O)[nH]c2c1C 39.8 µM [inhibitor, single point]
O=C(c1ccc(COc2ccc(F)cc2)o1)n1cc(Br)cn1 39.8 µM [inhibitor, single point]
Cc1cnc(CNc2cc(-c3ccccc3Cl)ncn2)cn1 39.8 µM [inhibitor, single point]
COc1ccc(/C=N/NC(=O)CCCOc2ccc(Cl)cc2Cl)cc1[N+](=O)[O-] 1.26 µM [inhibitor, full curve, poor fit]
COc1ccc(CCn2c(N)c(C(=O)NCc3ccco3)c3nc4ccccc4nc32)cc1OC 28.2 µM [inhibitor, partial curve]
Cc1ccc(C(=O)c2ccccc2C(=O)OCC(=O)NCCc2ccccc2)cc1 25.1 µM [inhibitor, single point]
CN(C)c1c([N+](=O)[O-])cc2[nH]c(=O)[nH]c2c1[N+](=O)[O-] 28.2 µM [inhibitor, single point]
Cc1ccc(O)c(NC(=S)NC(=O)c2ccccc2Cl)c1 39.8 µM [inhibitor, single point]
Cc1ccc(-c2nc3ncccn3c2Nc2ccc3c(c2)OCO3)o1 25.1 µM [inhibitor, single point]
Cc1cnc(C(=O)Nc2cccc(S(=O)(=O)N(C)C)c2)cn1 44.7 µM [inhibitor, single point]
O=C(/C=C/c1ccccc1)Oc1ccccc1C(=S)N1CCOCC1 35.5 µM [inhibitor, single point]
CN1C(=O)c2ccc(NC(=O)C3CCCCC3)cc2C1=O 35.5 µM [inhibitor, single point]
N#Cc1ccc(N2Cc3ccccc3/C2=N/C(=O)Nc2ccc(Cl)cc2)cc1 39.8 µM [inhibitor, single point]
Cc1ccnc(SCC(=O)c2ccc([N+](=O)[O-])cc2)n1 39.8 µM [inhibitor, single point]
COc1ccc(C(=O)/C=C/N2CCCCC2)cc1OC 28.2 µM [inhibitor, single point]
CSCCC(N=Cc1c(O)n(-c2ccc(F)cc2)c(=O)[nH]c1=O)C(=O)O (stereo not drawn) 25.1 µM [inhibitor, single point]
COc1ccc(OCC#CCn2ccnc2)cc1 28.2 µM [inhibitor, single point]
CCOC(=O)c1oc2ccccc2c1NC(=O)c1cccs1 35.5 µM [inhibitor, single point]
CCOC(=O)C1(Cc2ccc(O)cc2)NC(c2ccco2)C2C(=O)N(c3ccccc3F)C(=O)C21 (stereo not drawn) 39.8 µM [inhibitor, single point]
COc1ccc(-c2[nH]ncc2CN2CCCC(C(=O)c3ccc(OC)cc3OC)C2)cc1 (stereo not drawn) 37.7 µM [inhibitor, single point]
CSCc1c(C(=O)NC2CCCc3ccccc32)oc2ccccc12 (stereo not drawn) 35.5 µM [inhibitor, single point]
CN1CCN(c2ncc3nc(-c4ccccc4)c(=O)n(Cc4ccc(F)cc4)c3n2)CC1 10 µM [inhibitor, partial curve]
CCSc1nc2cc(C(=O)OC)ccc2c(=O)n1CC 25.1 µM [inhibitor, single point]
CCOc1ccc(-c2nc3n(c(=O)c2C#N)CCCS3)cc1 39.8 µM [inhibitor, single point]
CC1(C)C(=O)OC(c2cccc([N+](=O)[O-])c2)C2(CCCCC2)C1=O (stereo not drawn) 28.2 µM [inhibitor, single point]
c1cnc2c(C3NCCc4c3[nH]c3ccccc43)cccc2c1 (stereo not drawn) 31.6 µM [inhibitor, single point]
O=C1C(O)=C(O)C(=O)C(O)=C1O 15.8 µM [inhibitor, single point] and 28.2 µM [inhibitor, single point]
O=[N+]([O-])c1ccc(N/N=C/c2ccccc2)c(F)c1 39.8 µM [inhibitor, single point]
COc1ccc(C(=O)N/N=C/C2CC=CCC2)cc1OC (stereo not drawn) 35.5 µM [inhibitor, single point]
CCOC(=O)C(Oc1ccc2c(-c3ccccc3)cc(=O)oc2c1)c1ccccc1 (stereo not drawn) 28.2 µM [inhibitor, single point]
Cc1cc(C)n(/N=C/c2ccc(C(C)C)cc2)c(=O)c1C#N 11.2 µM [inhibitor, partial curve]
CC(=O)Nc1ccc2nc(-c3cccnc3)[nH]c2c1 39.8 µM [inhibitor, single point]
Cc1ccc(S(=O)(=O)NCCN2CCOCC2)cc1C 28.2 µM [inhibitor, single point]
Cc1cc(C(=O)NCc2ccc3c(c2)OCO3)n(-c2ccccc2)n1 39.8 µM [inhibitor, single point]
CC(C)(C)c1cc(S(=O)(=O)CCc2ccccn2)cc(C(C)(C)C)c1F 39.8 µM [inhibitor, single point]
CCOc1cc(/C=N/Nc2cccc(C(=O)O)c2)ccc1OCC(=O)N1CCCCC1 39.8 µM [inhibitor, single point]
CCn1c(SCC(=O)Nc2ccc3c(c2)c2ccccc2n3CC)nnc1-c1ccco1 15.8 µM [inhibitor, partial curve]
COc1ccccc1C(CCNS(=O)(=O)c1ccc(C)cc1)c1ccco1 (stereo not drawn) 20 µM [inhibitor, single point]
CN1C(=O)/C(=C/c2cc3c(cc2Br)OCO3)NC1=S 1.41 µM [inhibitor, full curve]
Cc1nc(NC(=O)C2CCCC2)sc1Cc1ccc2c(c1)OCO2 39.8 µM [inhibitor, single point]

activity, negative = inhibition, inactive:
O=S1(=O)C=CC(Nc2ccccc2)C1 (stereo not drawn) 13.3%
CC(C)(C)c1ccc(/C=C/C(=O)NC2CCS(=O)(=O)C2)cc1 (stereo not drawn) -11.6%
Cc1cc(C=O)c(C)n1-c1cc(C(F)(F)F)ccc1N1CCOCC1 0.941%
Nc1nccc(Nc2ccc(S(N)(=O)=O)cc2)n1 10.1% [at 13.5 µM]
C/C(=N\NC(=O)c1cnccn1)c1ccc([N+](=O)[O-])cc1 -3.24%
CC(=O)c1ccc(NC(=O)C(C)NCc2ccc(Cl)cc2)cc1 (stereo not drawn) 1.47%
Cc1ccc(Cn2ccc(=O)c(OCc3c(Cl)cccc3Cl)c2C)cc1 0.454%
CC1CCCCC1NC(=O)c1cncc(Br)c1 (stereo not drawn) -6.32%
Cc1ccc(NC(=O)CCn2c(=O)oc3ccccc32)c(C)c1 -1.69%
CCOc1nc(Nc2ccc(OC)c(Cl)c2)nc(N2CCN(c3ccc(OC)cc3)CC2)n1 -3.33%
O=C(O)c1ccc2c(c1)N(Cc1ccccc1)C(=O)c1ccccc1S2=O (stereo not drawn) 10.8%
CCCCS(=O)(=O)N1CCc2nc(COc3ccccc3)c3c(c2C1)CO[C@@H](C)C3 2.44% [at 13.5 µM]
CN(CCc1cn[nH]c1)Cc1nc(C(c2ccccc2)c2ccccc2)no1 -8.72%
CC1CN(Cc2nc3ccccc3c(=O)[nH]2)CC(C)O1 (stereo not drawn) 11%
Cc1ccc(S(=O)(=O)/N=C(\CN2CCOCC2)N2CCCC2)cc1 0.973%
COc1ccc(CCNC(=O)CSc2nc(C)nc3c2c(=O)n(C)c(=O)n3C)cc1OC -0.17%
O=C1c2cccnc2C(O)N1Cc1ccccc1 (stereo not drawn) 2.14%
